# From the BET-seq Pho4 binding data (Le et al. 2018)
# The other results are listed elsewhere or left out. Values were computed here from the reads of four pooled replicates and scatter widely.
# Molecular target: T1, Pho4 (S. cerevisiae) (UniProt P07270)
# T1 sequence: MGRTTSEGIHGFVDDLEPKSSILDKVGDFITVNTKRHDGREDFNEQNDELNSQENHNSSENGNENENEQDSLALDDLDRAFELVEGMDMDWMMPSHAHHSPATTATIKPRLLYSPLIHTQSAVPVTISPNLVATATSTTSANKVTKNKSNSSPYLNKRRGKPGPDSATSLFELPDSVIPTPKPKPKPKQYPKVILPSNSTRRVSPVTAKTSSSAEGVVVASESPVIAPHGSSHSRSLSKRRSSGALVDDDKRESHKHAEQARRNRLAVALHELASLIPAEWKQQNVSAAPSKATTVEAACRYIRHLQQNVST
# Assay: relative binding free energy (BET-seq); higher = weaker binding
# Settings: reference: library average
row,Sequence,relative binding free energy
1,TGGTACACGTGGAATA,0.06 kcal/mol
2,TTTTGCACGTGTGCAG,-0.08 kcal/mol
3,GTCGGCACGTGGCGAG,-0.09 kcal/mol
4,AAGTGCACGTGTTGAG,-0.01 kcal/mol
5,AGGCTCACGTGGTGGG,0.18 kcal/mol
6,GGGGGCACGTGTGGGC,-0.03 kcal/mol
7,TCGATCACGTGGCGGT,0.03 kcal/mol
8,GGGATCACGTGGTGGA,0.21 kcal/mol
9,TGGGGCACGTGCTTGT,-0.16 kcal/mol
10,ACCGGCACGTGGTGTG,-0.29 kcal/mol
11,GTCGGCACGTGACGTG,0.12 kcal/mol
12,ATGATCACGTGAGATG,0.22 kcal/mol
13,TTGTACACGTGGATGT,-0.01 kcal/mol
14,AAGGACACGTGGTTTA,0 kcal/mol
15,TAGTGCACGTGGCTTT,-0.13 kcal/mol
16,AGCGACACGTGGTGGC,-0.05 kcal/mol
17,GTTAGCACGTGGGCAG,-0.16 kcal/mol
18,TGTTGCACGTGGAAGT,0.1 kcal/mol
19,AGGGACACGTGATGGC,0.03 kcal/mol
20,AAGGTCACGTGAAGAG,0.38 kcal/mol
21,ACATTCACGTGGGTCT,0.19 kcal/mol
22,TGGAACACGTGTGGCT,0.08 kcal/mol
23,GTTGTCACGTGTCAGG,0.14 kcal/mol
24,GGTGGCACGTGTTATA,-0.06 kcal/mol
25,GCATGCACGTGGGTTT,-0.14 kcal/mol

row,Sequence,relative binding free energy
1,TTGGTCACGTGCGGGG,0.06 kcal/mol
2,TGCGTCACGTGGTTGT,-0.02 kcal/mol
3,ATGTGCACGTGAATCT,0.25 kcal/mol
4,TCTGTCACGTGGATTA,0.08 kcal/mol
5,ATGGTCACGTGGTATC,0.02 kcal/mol
6,ACTTTCACGTGTGGAT,0.4 kcal/mol
7,GTTTTCACGTGTAGCG,0.4 kcal/mol
8,AGAGCCACGTGGGAGG,-0.17 kcal/mol
9,GTAATCACGTGTGGGC,0.39 kcal/mol
10,AGGTGCACGTGGGCGC,-0.16 kcal/mol
11,TGTAACACGTGGTGTC,-0.21 kcal/mol
12,TTGGGCACGTGCCAGT,-0.25 kcal/mol
13,GAGATCACGTGAGGGG,0.48 kcal/mol
14,CTTCGCACGTGAAGGT,0.28 kcal/mol
15,ATAGTCACGTGAGTTC,0.31 kcal/mol
16,GGCGCCACGTGGGAGG,-0.08 kcal/mol
17,GTGCGCACGTGGGCGA,-0.28 kcal/mol
18,TGTGCCACGTGAGGCT,0.12 kcal/mol
19,ATAGTCACGTGTCTGG,0.07 kcal/mol
20,CTAAGCACGTGGGTTT,-0.22 kcal/mol
21,CTTGGCACGTGTGAGT,-0.09 kcal/mol
22,ATAGGCACGTGGGTCT,-0.19 kcal/mol
23,TAGTGCACGTGTGTGT,0.04 kcal/mol
24,GTTTCCACGTGGTGGA,0.14 kcal/mol
25,TTAAACACGTGTAAGG,-0.04 kcal/mol

row,Sequence,relative binding free energy
1,GGGAGCACGTGGTTAG,-0.11 kcal/mol
2,GTTCGCACGTGGGGGA,-0.19 kcal/mol
3,TGTATCACGTGTTTGT,0.18 kcal/mol
4,GTTCACACGTGGGAAG,0.13 kcal/mol
5,CGGGTCACGTGTCGTT,0.15 kcal/mol
6,GGTTGCACGTGTGTCT,0.08 kcal/mol
7,GGTGGCACGTGTCGAT,0.09 kcal/mol
8,TGGTGCACGTGTGAGA,-0.01 kcal/mol
9,ATAAGCACGTGTGTAT,-0.08 kcal/mol
10,GGCGGCACGTGAGAGG,0.11 kcal/mol
11,TGGGTCACGTGGGTAG,0.05 kcal/mol
12,TGAGCCACGTGTTATG,-0.01 kcal/mol
13,CGGGGCACGTGATGGA,0.03 kcal/mol
14,AAGGTCACGTGAGTTG,0.3 kcal/mol
15,TGCGGCACGTGGGAAG,-0.2 kcal/mol
16,GTCATCACGTGTTATT,0.18 kcal/mol
17,ATTCACACGTGTGGAA,0.19 kcal/mol
18,TTTTACACGTGCAAGG,0.1 kcal/mol
19,TGGTTCACGTGCCGAT,0.33 kcal/mol
20,GAGTTCACGTGCTATG,0.26 kcal/mol
21,GGTACCACGTGTGTGA,0.01 kcal/mol
22,AAGTTCACGTGAGTGA,0.26 kcal/mol
23,TGGTGCACGTGCAGGG,-0.07 kcal/mol
